# Data taken from the supplement of paper PMC8728848.
# The other results are listed elsewhere or left out.
# How the values were obtained:
# Assay in all cases: glycan array binding signal (z-score within array); higher = stronger binding
# Details in all cases: glycan notation: IUPAC condensed, linker removed
# Gal(b1-3)GalNAc(b1-3)Gal = target: Gal(b1-3)GalNAc(b1-3)Gal
# Procedure, shortened: (§1)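 Glycan array binding is given as a within-array Z-score, which can be read as non-binding when negative. The arrays, 3228 of them, came from the Consortium for Functional Glycomics database and were retained only where the protein sequence was available. Z-scores were averaged across arrays of the same protein sequence at different concentrations or buffers and across linkers.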
# [1] = target: Gal(b1-3)GalNAc(b1-3)Gal(a1-4)Gal(b1-4)Glc
# Procedure, shortened: as §1
# [2] = target: Gal(b1-3)GalNAc(b1-4)Gal(b1-4)Glc
# Procedure, shortened: as §1
# [3] = target: Gal(b1-3)GalNAc(b1-4)[Neu5Ac(a2-3)]Gal(b1-4)Glc
# Procedure, shortened: as §1
# Gal(b1-3)GlcNAc = target: Gal(b1-3)GlcNAc
# Procedure, shortened: as §1
# [4] = target: Gal(b1-3)GlcNAc(a1-3)Gal(b1-4)GlcNAc
# Procedure, shortened: as §1
# [5] = target: Gal(b1-3)GlcNAc(a1-6)Gal(b1-4)GlcNAc
# Procedure, shortened: as §1
# Gal(b1-3)GlcNAc(b1-2)Man = target: Gal(b1-3)GlcNAc(b1-2)Man
# Procedure, shortened: as §1
# [6] = target: Gal(b1-3)GlcNAc(b1-2)Man(a1-3)[Gal(b1-3)GlcNAc(b1-2)Man(a1-6)]Man(b1-4)GlcNAc(b1-4)GlcNAc
# Procedure, shortened: as §1
# [7] = target: Gal(b1-3)GlcNAc(b1-2)Man(a1-3)[Gal(b1-3)GlcNAc(b1-2)Man(a1-6)]Man(b1-4)GlcNAc(b1-4)[Fuc(a1-6)]GlcNAc
# Procedure, shortened: as §1
# [8] = target: Gal(b1-3)GlcNAc(b1-2)Man(a1-3)[GlcNAc(b1-4)][Gal(b1-3)GlcNAc(b1-2)Man(a1-6)]Man(b1-4)GlcNAc(b1-4)GlcNAc
# Procedure, shortened: as §1
# [9] = target: Gal(b1-3)GlcNAc(b1-2)[Gal(b1-3)GlcNAc(b1-6)]Man(a1-6)[Gal(b1-3)GlcNAc(b1-2)Man(a1-3)]Man(b1-4)GlcNAc(b1-4)GlcNAc
# Procedure, shortened: as §1
# [10] = target: Gal(b1-3)GlcNAc(b1-3)Gal(b1-3)GlcNAc
# Procedure, shortened: as §1
# [11] = target: Gal(b1-3)GlcNAc(b1-3)Gal(b1-4)Glc
# Procedure, shortened: as §1
# [12] = target: Gal(b1-3)GlcNAc(b1-3)Gal(b1-4)GlcNAc
# Procedure, shortened: as §1
# [13] = target: Gal(b1-3)GlcNAc(b1-3)Gal(b1-4)GlcNAc(b1-2)Man(a1-3)[Gal(b1-3)GlcNAc(b1-3)Gal(b1-4)GlcNAc(b1-2)Man(a1-6)]Man(b1-4)GlcNAc(b1-4)GlcNAc
# Procedure, shortened: as §1
# [14] = target: Gal(b1-3)GlcNAc(b1-3)Gal(b1-4)GlcNAc(b1-2)[Gal(b1-3)GlcNAc(b1-3)Gal(b1-4)GlcNAc(b1-6)]Man(a1-6)[Gal(b1-3)GlcNAc(b1-3)Gal(b1-4)GlcNAc(b1-2)Man(a1-3)]Man(b1-4)GlcNAc(b1-4)[Fuc(a1-6)]GlcNAc
# Procedure, shortened: as §1
# [15] = target: Gal(b1-3)GlcNAc(b1-3)Gal(b1-4)GlcNAc(b1-3)Gal(b1-4)GlcNAc(b1-2)[Gal(b1-3)GlcNAc(b1-3)Gal(b1-4)GlcNAc(b1-3)Gal(b1-4)GlcNAc(b1-6)]Man(a1-6)[Gal(b1-3)GlcNAc(b1-3)Gal(b1-4)GlcNAc(b1-3)Gal(b1-4)GlcNAc(b1-2)Man(a1-3)]Man(b1-4)GlcNAc(b1-4)[Fuc(a1-6)]GlcNAc
# Procedure, shortened: as §1
# [16] = target: Gal(b1-3)GlcNAc(b1-3)Gal(b1-4)GlcNAc(b1-6)[Gal(b1-3)GlcNAc(b1-3)]Gal(b1-4)Glc
# Procedure, shortened: as §1
# [17] = target: Gal(b1-3)GlcNAc(b1-3)Gal(b1-4)[Fuc(a1-3)]GlcNAc
# Procedure, shortened: as §1
# [18] = target: Gal(b1-3)GlcNAc(b1-3)Gal(b1-4)[Fuc(a1-3)]GlcNAc(b1-6)[Gal(b1-3)GlcNAc(b1-3)]Gal(b1-4)Glc
# Procedure, shortened: as §1
# [19] = target: Gal(b1-3)GlcNAc(b1-3)GalNAc
# Procedure, shortened: as §1
# [20] = target: Gal(b1-3)GlcNAc(b1-6)Gal(b1-4)GlcNAc
# Procedure, shortened: as §1
# [21] = target: Gal(b1-3)GlcNAc(b1-6)GalNAc
# Procedure, shortened: as §1
# [22] = target: Gal(b1-3)GlcNAc(b1-6)[Gal(b1-3)]GalNAc
# Procedure, shortened: as §1
# Gal(b1-3)GlcNAc6S = target: Gal(b1-3)GlcNAc6S
# Procedure, shortened: as §1
# [23] = target: Gal(b1-3)[Fuc(a1-4)]GlcNAc
# Procedure, shortened: as §1
# [24] = target: Gal(b1-3)[Fuc(a1-4)]GlcNAc(b1-2)Man
# Procedure, shortened: as §1
# [25] = target: Gal(b1-3)[Fuc(a1-4)]GlcNAc(b1-2)Man(a1-3)[Gal(b1-3)[Fuc(a1-4)]GlcNAc(b1-2)Man(a1-6)]Man(b1-4)GlcNAc(b1-4)GlcNAc
# Procedure, shortened: as §1
# [26] = target: Gal(b1-3)[Fuc(a1-4)]GlcNAc(b1-2)Man(a1-3)[Gal(b1-3)[Fuc(a1-4)]GlcNAc(b1-2)Man(a1-6)]Man(b1-4)GlcNAc(b1-4)[Fuc(a1-6)]GlcNAc
# Procedure, shortened: as §1
# [27] = target: Gal(b1-3)[Fuc(a1-4)]GlcNAc(b1-3)Gal(b1-3)[Fuc(a1-4)]GlcNAc
# Procedure, shortened: as §1
# [28] = target: Gal(b1-3)[Fuc(a1-4)]GlcNAc(b1-3)Gal(b1-4)GlcNAc
# Procedure, shortened: as §1
# [29] = target: Gal(b1-3)[Fuc(a1-4)]GlcNAc(b1-3)Gal(b1-4)[Fuc(a1-3)]GlcNAc
# Procedure, shortened: as §1
# [30] = target: Gal(b1-3)[Fuc(a1-4)]GlcNAc(b1-6)GalNAc
# Procedure, shortened: as §1
# [31] = target: Gal(b1-3)[GlcNAc(b1-6)]GalNAc
# Procedure, shortened: as §1
# [32] = target: Gal(b1-3)[Neu5Ac(a2-6)]GalNAc
# Procedure, shortened: as §1
# [33] = target: Gal(b1-3)[Neu5Ac(a2-6)]GlcNAc(b1-4)Gal(b1-4)Glc
# Procedure, shortened: as §1
binder,measurement,setting,value
rAAL-2 (Agrocybe aegerita) (protein) MTSNVITQDLPIPVASRGFADIVGFGLDGVVIGRNAVNLQPFLAVKNFAQNAGGWLTTKHVRLIADTTGTGKGDIVGFGNAGVYVSVNNGKNTFADPPKMVIANFGYDAGGWRVEKHLRYLADIRKIGRADIIGFGEKGVLVSRNNGGLNFGPATLVLKDFGYDAGGWRLDRHLRFLADVTGNGHLDIVGFGDKHVFISRNNGDGTFAPAKSVIDNFCIDAGGWKIGDHPRFVADLTGDGTADIIGCGKAGCWVALNNGGGVFGQVKLVINDFGTDKGWQAAKHPRFIADLTGNGRGDVVGFGNAGVYVALNNGDGTFQSAKLVLKDFGVQQGWTVSKHRRFVVDLTGDGCADIIGFGEKETLVSYNDGKGNFGPVKALTNDFSFSGGKWAPETTVCWMANLDSSRH,glycan array binding signal (z-score),Gal(b1-3)GalNAc(b1-3)Gal,-0.498
same,glycan array binding signal (z-score),[1],-0.152
same,glycan array binding signal (z-score),[2],-0.272
same,glycan array binding signal (z-score),[3],-0.36
same,glycan array binding signal (z-score),Gal(b1-3)GlcNAc,-0.242
same,glycan array binding signal (z-score),[4],-0.083
same,glycan array binding signal (z-score),[5],-0.314
same,glycan array binding signal (z-score),Gal(b1-3)GlcNAc(b1-2)Man,-0.274
same,glycan array binding signal (z-score),[6],-0.015
same,glycan array binding signal (z-score),[7],-0.223
same,glycan array binding signal (z-score),[8],-0.115
same,glycan array binding signal (z-score),[9],-0.086
same,glycan array binding signal (z-score),[10],-0.172
same,glycan array binding signal (z-score),[11],-0.157
same,glycan array binding signal (z-score),[12],-0.299
same,glycan array binding signal (z-score),[13],-0.255
same,glycan array binding signal (z-score),[14],-0.063
same,glycan array binding signal (z-score),[15],-0.184
same,glycan array binding signal (z-score),[16],-0.234
same,glycan array binding signal (z-score),[17],-0.271
same,glycan array binding signal (z-score),[18],-0.38
same,glycan array binding signal (z-score),[19],-0.228
same,glycan array binding signal (z-score),[20],-0.337
same,glycan array binding signal (z-score),[21],-0.261
same,glycan array binding signal (z-score),[22],-0.398
same,glycan array binding signal (z-score),Gal(b1-3)GlcNAc6S,-0.131
same,glycan array binding signal (z-score),[23],-0.212
same,glycan array binding signal (z-score),[24],1
same,glycan array binding signal (z-score),[25],-0.186
same,glycan array binding signal (z-score),[26],-0.017
same,glycan array binding signal (z-score),[27],-0.328
same,glycan array binding signal (z-score),[28],-0.246
same,glycan array binding signal (z-score),[29],-0.404
same,glycan array binding signal (z-score),[30],-0.064
same,glycan array binding signal (z-score),[31],-0.212
same,glycan array binding signal (z-score),[32],-0.18
same,glycan array binding signal (z-score),[33],-0.326
